# From the supplement of paper PMC3334620
# Whole data set: some 33,000 sequences, median “E-score (-0.5 to 0.5)” near -0.054, cut for the highest 2% near 0.39. The list shows a part of the results.
# Biological target: Ylr278c (UniProt Q05854)
# Experiment: PBM E-score (8-mer binding enrichment) (E-score (-0.5 to 0.5)); higher = stronger / more preferred TF binding; most listed sequences are background and not binding sites
# Conditions: protein concentration: 200 nM; construct: GST-DNA-binding domain
# In short: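 E-scores (a modified Wilcoxon-Mann-Whitney statistic) were assigned by the Universal PBM Analysis Suite to every ungapped eight-base word pooled with its reverse complement. The input came from universal all-10-mer Agilent arrays made double-stranded by primer extension and probed with GST-tagged yeast transcription factors at about 100-200 nM. Fluorescent anti-GST detected bound protein, and masliner normalised the scans.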
row,Sequence,PBM E-score
1,AGATTACA,-0.0105
2,GCTAAACC,0.0263
3,ACTAAGAC,-0.186
4,GTTCGCGA,0.0355
5,GAGCCGCC,0.245
6,CTGTCCCA,-0.212
7,CTCGTCAA,-0.234
8,AGTTATAC,0.0158
9,ACCGAGAC,-0.0312
10,GCATGTCA,-0.0539
11,CGTCGAAA,0.0207
12,GCTTCAAC,-0.137
13,GGCCGAAC,0.199
14,CCCTCCGG,0.388
15,CCAAAGAG,-0.199
16,TCGTATAA,-0.0438
17,AAATAACC,-0.114
18,AATTTTGG,-0.00227
19,GAGGTGAA,-0.0886
20,CAACCGTG,-0.257
21,CCCACATC,-0.143
22,ACGAGTAC,-0.139
23,AGAGGAGG,-0.278
24,ATACGCCA,-0.0814
25,CACGCCCA,-0.101

row,Sequence,PBM E-score
1,AAGGAATA,-0.00521
2,CGGCGGGA,0.36
3,ACATCTCT,-0.0918
4,AACATTTG,-0.138
5,CTAGCTTC,-0.0742
6,AGTCGTCA,-0.279
7,GGCAAAAA,0.186
8,AAAACGCG,0.0654
9,TGGCCAAA,-0.289
10,ACCACCTC,0.142
11,GGAGGGTA,0.126
12,CCCTACAA,-0.141
13,CGCCAGTA,-0.125
14,GATCGTAC,0.0607
15,AAGGTCCG,0.426
16,GATTCGCC,0.0728
17,CAGTTTCC,0.181
18,CGGCATCC,0.25
19,AAGCAGGT,-0.164
20,ACCGGAGC,0.448
21,CGAATACG,0.0905
22,CAACCTCG,0.0293
23,CTGTAAAC,-0.287
24,TAGAGGGA,-0.315
25,CGTATACC,-0.142

row,Sequence,PBM E-score
1,CTTCCCTC,-0.139
2,ACCTCCCT,-0.205
3,ACGCCACA,0.013
4,CCAATCTA,-0.00777
5,AATCCCGC,0.344
6,AGTAAGTC,-0.0222
7,GCCTGACA,-0.0918
8,CTATCTAC,-0.0559
9,TCTGTGCA,-0.0797
10,TACCAACA,-0.28
11,TGGAGAAA,-0.0369
12,AGTCATCA,-0.188
13,ATCGACTC,-0.189
14,CGTCGCAG,-0.192
15,AGCCCAAC,-0.323
16,GGATGGTA,-0.0894
17,GGACATTA,0.336
18,ACGTAACC,-0.105
19,CAATGATG,-0.0452
20,CCCGGTGA,0.257
21,ACTGACCG,0.11
22,CATCTTGA,-0.0937
23,ATCTTGAG,-0.166
24,GGGACGAA,-0.0291
25,CAGGGCGA,-0.0431

row,Sequence,PBM E-score
1,GGAGATAC,0.305
2,CGTGACAA,0.0435
3,CTTCCCGA,0.125
4,AACGCATT,0.0592
5,CCCCTCCC,-0.0571
6,AATCAAGA,-0.168
7,TAAAAGTA,0.00072
8,ATGGCCCA,-0.00739
9,TGATAAAA,-0.0664
10,GATTTCAA,0.214
11,ATAGGACG,-0.0359
12,GGCTACCA,-0.11
13,AGCCACCT,-0.269
14,ATGATTAG,-0.0554
15,CGTTACGA,0.0615
16,GGTTCTGA,-0.0968
17,GCATGCGA,0.0188
18,GCCGTGAC,0.0202
19,CCGTACTC,0.0606
20,GGTCACCA,-0.288
21,CTATCGAG,-0.191
22,AAGCTAAT,-0.0983
23,CGTGGGGC,0.107
24,AGTTATCG,0.195
25,CTGTGTAC,-0.0473

row,Sequence,PBM E-score
1,ACCAACAT,-0.072
2,GCCGCCTA,0.019
3,CAGATCCA,-0.0494
4,CAGGTGAA,-0.189
5,CCAGCGAA,-0.0882
6,CCAAAACC,-0.0239
7,GTCAACAA,-0.23
8,AGCCAGCC,-0.18
9,ACTGTCTG,-0.228
10,AAATAGTA,0.0229
11,AGTGTGCC,-0.0151
12,CGGGGGTA,0.334
13,CCCGAAAA,0.294
14,AATGCTGT,-0.229
15,AGGCTAAT,0.0326
16,CACGCTTA,-0.136
17,CATGTACC,-0.176
18,GCCTGCCA,-0.0756
19,CATAAGAC,-0.0531
20,ATGGGTAG,-0.221
21,TGACCGAA,0.0673
22,ACTGTAAA,0.0444
23,AAACCAAA,-0.08
24,GAGGATTA,-0.121
25,GCCGACAC,0.181

row,Sequence,PBM E-score
1,GAACTTGC,-0.00576
2,CTTCGATA,-0.00519
3,ACCCGGAG,0.46
4,GCAGCACA,-0.0608
5,GGCAGTAA,0.099
6,AAAAAGAG,-0.21
7,CGGGACGA,0.0447
8,ACTTAAGC,-0.112
9,CCAGGGCC,-0.186
10,GGAATGGA,0.0354
11,AGACCGAG,0.189
12,GCGAATAA,0.0644
13,AAGTCCAG,-0.0689
14,ACGATAAG,0.119
15,AATTCTAC,-0.209
16,GCTTGCAA,-0.0736
17,TAATCTCA,-0.0434
18,ACGGGCTA,-0.081
19,CTTCTGAA,-0.00463
20,ACATGGCG,-0.165
21,AAGTTAAA,-0.151
22,ATAGGTAG,-0.186
23,CCGCGACG,0.188
24,GGGGTATA,0.0253
25,CGGCATTC,0.359

row,Sequence,PBM E-score
1,GGACAAAA,0.333
2,ATGCACCC,0.138
3,AGCCCACA,-0.253
4,ACATGGAC,-0.249
5,CACTCGAC,-0.0709
6,CTGGGAAG,-0.172
7,AAAGGGCC,-0.198
8,CTGAGAAC,-0.152
9,CAAATGTC,0.0103
10,TCATTTCA,0.0142
11,ATTGGCGC,-0.0108
12,CGGAGCAA,0.456
13,CTCTTACA,-0.261
14,CGGATCTA,0.32
15,ACACGCCA,-0.0767
16,ACTCCCGC,0.26
17,ATGTAAAC,0.0031
18,GTTCGCCA,-0.0345
19,GCCCGCAA,0.149
20,AAAGGACT,-0.0605
21,ACAGATAT,-0.119
22,AAACTAAG,-0.138
